± gives the standard deviation of the averaged measurements. The list shows a part of the results.
tested on: PfAP2-LT AP2 domain (GST-tagged); assay: gcPBM binding intensity (ln(normalized median fluorescence intensity)); higher = stronger DNA binding
Outline: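 DNA-binding domains from P. falciparum, fused to GST and produced in E. coli, were put on an Agilent 4 × 180k double-stranded probe array for 1 h in 1× PBS holding 1% milk, 0.2 mg/ml BSA, 0.5% salmon testes DNA and 0.03% Triton X-100. Probes were primer-extended, 36 bp long and drawn from intergenic genomic regions, with negative controls included. After Alexa488 anti-GST antibody detection and a 488 nm scan, binding intensity was set as the highest Masliner-normalised natural-log median intensity across replicate spots of either probe orientation.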

Sequence	gcPBM binding intensity (ln)
AATTTAAAACGGAGATGTACATATATAAATATATAC [XGTACX_site3723]	8.93 ± 0.47
CGGCTATTTCTATATACATGCATTTAAAAAAAAAAT [TGCATGCA_site354]	8.32 ± 0.4
TATATATCTGTGAAAATACTTAAATTGTTATAAAAA [CACACA_negctrl_site1109]	8.39 ± 0.45
AAAAAAAAAATGAGCACACATAAATAAAAACAAACA [CACACA_site1573]	9.22 ± 0.48
ACCTATTTCAAACACACACACACACTAACAAACATA [CACACA_site8233]	10 ± 0.13
AGTTATTTTAAATGTAGTACACAAAAGAAATATTAA [XGTACX_site4092]	8.61 ± 0.49
CATAAATTAAAACACACACACACAAAAAAAAAAAAA [CACACA_site2262]	9.84 ± 0.33
TATTTTCTCGTTTGCATGCACCTTATTTTATGTGGT [GTGCAC_site9470]	9.39 ± 0.49
TAAAATTTGCGATGCACACAGAATAGCTAATATGAC [CACACA_site2995]	9.16 ± 0.3
ATATTATATATATACACACACACATGCATGCACATA [CACACA_site7917]	9.89 ± 0.22
AAATTCTGCATCGAGGTGCGCCATAAAAATTGTGGT	8.81 ± 0.38
TACTAAAACCCATACACACACATATTTATAGTACCA [CACACA_site7484]	9.57 ± 0.33
TATACAATATATATAACACACATATTTATATAAAAT [CACACA_site5061]	8.97 ± 0.35
ACAAATCTATAAGAGTGTACGAACAGTAAAGGAATT [XGTACX_site2070]	9.2 ± 0.56
AACATAAAAATTGAAGCACACACACTAATGAAATAC [CACACA_site8287]	9.62 ± 0.22
CAGTTGGAAGGAAAGTGTACATAAAAAAAAATATAA [XGTACX_site8784]	8.83 ± 0.59
AAAATACCATTTGAAACACACAAAAAAAAAAAAAAT [CACACA_site2981]	9.04 ± 0.51
TTTAAAAATATATATTGTACATATATATATCTATGA [XGTACX_site3556]	8.43 ± 0.52
ATAAAAATTAAAAGGAGTACTTAAATATTAAGATGG [XGTACX_site4815]	8.53 ± 0.37
TACTATTTAAAATTTGAACACACATTATTTATTTTA [CACACA_site9020]	8.58 ± 0.57
TTTATTTAAAAAATAAAAAAAAAAAAAAAAAAAAAA [CACACA_negctrl_site1670]	8.05 ± 0.21
TTATGTGTATAGGTTTGTACATAAAATGATGTATAG [XGTACX_site1401]	8.77 ± 0.44

Sequence	gcPBM binding intensity (ln)
TCATGGAATATTTAAAGTACAAAAAGTGTTCTTTAC [XGTACX_site715]	8.36 ± 0.47
TAGTCATATATATATGTACACACATATATATATTTA [CACACA_site8413]	8.88 ± 0.38
TATATATATATGTGTACACATGTCGCATTTTTTTAT [CACACA_site4648]	9.57 ± 0.33
GATATTATAAAATAAAAATAAATCATTTCTATTCAT [CACACA_negctrl_site334]	8.32 ± 0.49
ACATATATGGAGCTTATACACACTTTTATATTTTAA [CACACA_site3854]	8.81 ± 0.47
TTTTAAATATGCCATACACACTACTCTATAATAAAT [CACACA_site6987]	8.69 ± 0.4
TTATCATATAATTATTGTACTAAAAAAAAAGCGAGT [XGTACX_site3086]	8.68 ± 0.4
TTATAATAAATATATAAAAAAAAAAAAAAAAAAAAA [CACACA_negctrl_site1639]	8.19 ± 0.36
ATATATTATGGGTGTGCACACAATATTTATATGTTC [CACACA_site2270]	9.51 ± 0.47
TTTTCTTATAAATGAAGTACAAAAAAAAAATATATA [XGTACX_site1352]	8.25 ± 0.38
TGATAGCACCTTATATGTACATATAATATATTATTA [XGTACX_site837]	8.91 ± 0.38
AAGGTATAATATATTTGTACATATACATTTTTGAAT [XGTACX_site6493]	8.77 ± 0.38
TGAAAAATGTAATGCTCACACATATATATATATATA [CACACA_site5213]	9.78 ± 0.35
GATTTTAATGGGTGTACACATTTATTTATATAAAGT [CACACA_site5317]	8.74 ± 0.45
TATCCCCTTGTCCATATTAATTGTGACATCATATAT [XGTACX_negctrl_site9]	8.93 ± 0.45
TATTTTTTATTTTAAATCCTCTGATATTTAATTTGT [TGCATGCA_negctrl_site84]	8.48 ± 0.49
TAATATGTTTATGGTAACATACAAAAATGTATATAT [GTGCAC_negctrl_site204]	8.55 ± 0.37
ATGTGTATATATATGTGTACATAATTTGTGTTATTC [XGTACX_site2509]	9.08 ± 0.41
GTGTCTTTTATTAAATGTACATATTCATAGATAAAA [XGTACX_site8578]	8.49 ± 0.3
TTATTTTTTTGGAATTCACACACAAAAAAAAAAATA [CACACA_site8650]	8.72 ± 0.38
ACGTAAACATGTAGAAGGCATTACACAATGGTATAC [TGCATGCA_negctrl_site512]	9.3 ± 0.35
ACCTTAAAAATAACTGCACACAAAAATAAATACCTT [CACACA_site8902]	9.16 ± 0.38

Sequence	gcPBM binding intensity (ln)
TAGAATGAAAAAAAAGCATGCGGGCAAAAATTTTTA [TGCATGCA_site926]	8.87 ± 0.47
AATTGAGAAGTGTGTTGTACATAATGGCACATACCT [XGTACX_site1370]	9.03 ± 0.39
TTATGGTGCATGAAATCACACATTGATATATATGCT [CACACA_site5352]	8.85 ± 0.46
ACATTTAAATAATATGTGCACAGCTATATTTTCTTT [GTGCAC_site9562]	8.86 ± 0.48
ATATATATATATATATGTACATATATATATTATATT [XGTACX_site6303]	9.19 ± 0.18
ATATTTAGGAAAAATAGTACACATTTAAATAATAAT [XGTACX_site7989]	8.68 ± 0.47
TAGGTGCCTTTTTTCACACACATGTCAACTAAATAT [CACACA_site2656]	9.22 ± 0.44
AAATATATATATATATATATAAATATATACATATAT [TGCATGCA_negctrl_site517]	8.89 ± 0.23
CTTTAAATTAATAAAAGTACATTATTTATATATTTT [XGTACX_site4808]	8.25 ± 0.59
ATAACAAAAAAAAAGGTGCTACAAAATGAATAAAAA [GTGCAC_site9659]	8.79 ± 0.56
TACATATATATATATGTACACACATTAATAAAAAAA [CACACA_site9058]	8.97 ± 0.41
ATATTTTATTTTAATACACACAAGTTATATAACCAC [CACACA_site6508]	9 ± 0.41
AATATAAATAATTATACACACTTAATATATATATAC [CACACA_site5533]	8.83 ± 0.44
ATTTATGTTAATAAGTGTACAATAAATTTTTTTTAT [XGTACX_site7658]	8.4 ± 0.46
AACATATATAAATACACACACATATATATATGAAAT [CACACA_site4312]	9.51 ± 0.26
AAAATGTCCCGTAGAAAATAAATTTATTACGCAATA [CACACA_negctrl_site1564]	8.6 ± 0.4
TATTAATTTAAATGGGTGCAAAACCTATATAAATAT	8.61 ± 0.46
TTATTTTATTTTTGTGCACACTGATAAATTGAAAAG [CACACA_site2949]	8.82 ± 0.49
TAAAAGTTCACCTGTACACACATATAAATATGTACA [CACACA_site6901]	8.95 ± 0.33
CGTTTTCTATATCATTGTACATATTCATGTGTAAAT [XGTACX_site2741]	8.98 ± 0.36
AAAATTAACCGTAACACACACACATATAAATATGTA [CACACA_site7791]	9.57 ± 0.23
TTGTTTAAGTCACGAACACACATATATCATCAATTT [CACACA_site986]	8.9 ± 0.36

Sequence	gcPBM binding intensity (ln)
ATTAATAAATTCAATTGTACTTGTTTATACATAAAA [XGTACX_site3733]	8.31 ± 0.42
ACAAAATTATGTAGATGTACAGACATAGAAAGAGAT [XGTACX_site3096]	9.17 ± 0.45
ATTTATGAAAAATGTACACACATCAAATGCTTATAT [CACACA_site4068]	8.97 ± 0.41
GTTTGAATGGCGCACTGTACACATATATACATATAG [XGTACX_site8619]	9.13 ± 0.26
ATTTATTTTGTTGTTGTTTTTATTTGATTGTTTTAT [CACACA_negctrl_site1275]	9.04 ± 0.47
TTATGGTGCAACATTATGCACACCGTTAAATAACTA [CACACA_site3846]	8.76 ± 0.4
AATATAAATAAACACACACACATATATATATATATT [CACACA_site2906]	9.79 ± 0.21
CAGTAGTATATACTATGTACATATTTATATTATATT [XGTACX_site4964]	8.91 ± 0.4
TAATAAATAAAAATAGAACACACATATGTTTTTTTT [CACACA_site9185]	8.7 ± 0.47
AAAAAAAAAAAAAAATGTACATATATATAAATAAAA [XGTACX_site5574]	8.61 ± 0.58
ATATTTATATATTGCACACAAAAAAAAAAAAAAATC [CACACA_site1629]	9.02 ± 0.47
TATATATATATGTAATGTACATAAATTTTATACCTT [XGTACX_site6991]	8.84 ± 0.36
AACAACCAAACGCACACACACAAAAAAAAAAATATA [CACACA_site6326]	9.88 ± 0.57
TTATATGCATAAAAAGGTACACATATATAAATAAAT [XGTACX_site6894]	8.91 ± 0.4
ACATTTAAAATTTATGCATGTGGTGTTTTGTATATA [TGCATGCA_site534]	9.11 ± 0.48
TAATAAAATGTACACGCATGCAATAGAATATAAAGT [TGCATGCA_site905]	9.45 ± 0.3
TTTGTGTAGGTGTGTAGTACATATAACTTATAACAT [XGTACX_site7885]	9.09 ± 0.31
TATATTCATAATATTACACACGTTCATTTATTTTAA [CACACA_site2031]	8.96 ± 0.42
GAGTGAAATATGCAAACACACACGAGAAAAATGTAT [CACACA_site3196]	9.57 ± 0.37
TATGGTTTTAAAAAATGTACGCAAGTGCGTTAATTT [XGTACX_site3945]	8.54 ± 0.33
AAATTTATAAAGAACACACACATATAAATATAAATA [CACACA_site6174]	9.37 ± 0.41
TTATATATTTATATATGTACACATTTTACCATTTTT [XGTACX_site2142]	8.8 ± 0.47

Reference: the supplement of paper PMC11417369
